# About 14,000 (4.5%) of roughly 310,000 compounds showed an effect of 50% or more. Effects have a minus sign here. The list shows a part of the results.
# Target: human ether-à-go-go-related gene (hERG) potassium channel (human, UniProt Q12809)
# Experiment: primary screen, population patch clamp on CHO cells stably expressing hERG
# 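Note: peak tail current of the secondary pulse compared with the same well before compound.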
# Sequence of human ether-à-go-go-related gene (hERG) potassium channel (Q12809 whole entry, looked up): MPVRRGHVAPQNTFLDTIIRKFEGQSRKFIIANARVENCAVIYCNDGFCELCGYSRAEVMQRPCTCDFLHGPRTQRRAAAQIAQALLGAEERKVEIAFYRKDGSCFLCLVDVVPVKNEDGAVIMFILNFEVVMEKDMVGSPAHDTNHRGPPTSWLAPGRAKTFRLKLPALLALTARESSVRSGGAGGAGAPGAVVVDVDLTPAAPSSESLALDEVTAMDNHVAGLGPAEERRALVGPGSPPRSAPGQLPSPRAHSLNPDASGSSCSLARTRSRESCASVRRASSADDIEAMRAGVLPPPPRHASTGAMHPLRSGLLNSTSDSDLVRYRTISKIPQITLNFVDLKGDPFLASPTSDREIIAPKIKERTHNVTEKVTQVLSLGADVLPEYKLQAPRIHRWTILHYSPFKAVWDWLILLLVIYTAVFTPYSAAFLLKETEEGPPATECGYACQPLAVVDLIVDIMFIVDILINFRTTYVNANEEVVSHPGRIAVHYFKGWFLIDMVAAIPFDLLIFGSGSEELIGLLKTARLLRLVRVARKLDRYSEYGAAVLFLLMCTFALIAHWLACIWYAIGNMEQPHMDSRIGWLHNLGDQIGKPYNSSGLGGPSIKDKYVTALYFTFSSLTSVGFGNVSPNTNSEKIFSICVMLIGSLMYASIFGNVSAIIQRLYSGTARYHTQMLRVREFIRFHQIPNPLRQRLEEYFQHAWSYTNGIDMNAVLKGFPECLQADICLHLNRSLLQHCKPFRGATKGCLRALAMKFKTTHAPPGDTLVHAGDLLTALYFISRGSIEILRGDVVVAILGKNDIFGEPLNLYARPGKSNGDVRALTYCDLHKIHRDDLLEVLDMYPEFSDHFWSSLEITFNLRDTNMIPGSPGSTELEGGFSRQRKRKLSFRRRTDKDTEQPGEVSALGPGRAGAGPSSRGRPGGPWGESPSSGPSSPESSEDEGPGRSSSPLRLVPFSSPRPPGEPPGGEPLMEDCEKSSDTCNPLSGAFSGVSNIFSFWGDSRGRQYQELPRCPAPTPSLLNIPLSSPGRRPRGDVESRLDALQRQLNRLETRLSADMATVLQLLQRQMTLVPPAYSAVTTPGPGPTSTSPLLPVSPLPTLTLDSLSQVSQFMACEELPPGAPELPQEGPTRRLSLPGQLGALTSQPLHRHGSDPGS
row,Structure (SMILES),"hERG current change (%, negative = inhibition) at 10uM [%]"
1,O=C1OCCC1Sc1nnc(-c2ccccc2Cl)n1Cc1ccccc1 (stereo not drawn),2.19
2,CCOC(=O)c1sc(NC(=O)c2ccoc2C)c(C(N)=O)c1C,5.88
3,O=C(NCCCN1CCCC1=O)c1ccc(NS(=O)(=O)c2cccc([N+](=O)[O-])c2)cc1,2.78
4,COc1cc(Cl)c(S(=O)(=O)NCc2ccccn2)cc1Cl,-3
5,CCOC(=O)c1csc(-c2ccc(OC)c(OC)c2)n1,3.08
6,COc1ccc(CNC(=O)CN(C(=O)c2ccc(CN3CCOCC3)o2)C2CCCC2)cc1,1.15
7,CSCCC(NC(=O)CCN1C(=O)c2ccccc2C1=O)C(=O)O (stereo not drawn),12.2
8,CCc1cc(=O)oc2cc(OC(C)=O)cc(OC(C)=O)c12,5.05
9,O=C(N/N=C/c1ccccc1OCc1ccccc1)c1cccs1,5.13
10,COc1ccccc1-n1c(SCC(=O)O)nc2c(sc(=S)n2-c2ccc(C)c(C)c2)c1=O,14.6
11,CCOc1ccc(S(=O)(=O)N2CCC(C(=O)NC3CCCC3)CC2)cc1,1.98
12,CC(C)(C)NC(=O)C1CCN(C(=O)c2ccc(-c3ccccc3)cc2)CC1,-13
13,Cc1ccc(C(=O)Nc2ccc(OCc3ccccc3)cc2)cc1[N+](=O)[O-],0.879
14,COc1ccc(F)cc1C(=O)C1CCCN(C(=O)CSc2ccccn2)C1 (stereo not drawn),-7.26
15,COc1cccc(NC2=CC(=O)CC(C)(C)C2)c1,6.99
16,CCC(=O)Nc1ccc(C(=O)NNC(=O)COc2cccc(C)c2)cc1,1.84
17,N#CNC(=Nc1ccc(Cl)cc1)Oc1ccccc1,-3.15
18,CCOC(=O)COc1ccc(Br)cc1C1NC(=O)NC(C)=C1C(=O)NCc1ccccc1 (stereo not drawn),-14.8
19,COc1ccc(C(=O)N/N=C/c2ccc(OC)c(COc3ccccc3)c2)cc1,-26.1
20,O=C(NCc1ccc(F)cc1F)Nc1cnccc1C(F)(F)F,3.31
21,COc1ccc(N(CC(=O)Nc2ccccc2C(=O)O)S(=O)(=O)c2ccc(C)c([N+](=O)[O-])c2)cc1,19.9
22,O=C(CSc1nnc2ccc(-c3ccccc3)nn12)NCC1CCCO1 (stereo not drawn),-5.44
23,COc1cccc(-c2cccc(NC(=O)C3CCN(Cc4ccc(C)o4)CC3)c2)c1,-39.4
24,COc1ccccc1C(=O)NCC(=O)OCC(=O)c1ccc(Cl)s1,8.65
